The values that follow come from the supplement of paper PMC11383711.

This is one part of the list. Binding of human antibodies (heavy:light variable regions, tested as scFv in one mRNA-display pool) to influenza hemagglutinin, with or without the stem antibody CR9114 bound first. Score = (mean enrichment − median) / interquartile range of that screen; higher = more enriched, 0 = typical non-binder. Active = above the paper's cut-off per screen: stems 28; unblocked H1 Solomon Islands 5, H1 Michigan 3, H3 5, H5 19, H7 2.85, both B 5; blocked 9, 7, H5 10, H7 10, B Phuket 10, B Lee 11.5. Scores are scaled within each screen and are no affinities; replicates correlate at about 0.6 to 0.9, and antibodies rare in the pool are noisier.

The target of assay [1] is H1 HA stem construct (mini-HA #4900). As to the kind of experiment: mRNA display binding score; higher = more enriched on the antigen. The conditions noted are these: antigen blocked with: nothing. The method, then:
(§1)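 A pool of natively paired antibodies, displayed as scFv on mRNA, was selected once on antigen-coated beads and sequenced before and after; two replicates.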

In assay [2] the target is H3 HA stem construct (H3ssF). The description is as above. The following applies: antigen blocked with: nothing. As to the method: as §1

B1: K77-2A04 (protein)
chain 1: QVHLQESGPGLVKPSGTLSLTCDVSGVSIRSPNWWSWVRQSPGKGLEWIGEIYHSADTNYNPSLKSRVTISLDKSKNQFSLKLISVTAADTAVYYCGRDRYDSSGFYRGYYYGIDVWGQGTTVTVS
chain 2: DVVMTQSPLSLPVTLGQAASISCRSGQSLVHTDGNTYLNWFQQRPGQSPRRLIYQVSNRDSGVPDRFSGSGSGTDFTLKISRVEAEDVAVYYCMQGTHWPPTFGQGTKVEVK
Turning to B1, the “mRNA display binding score” value in assay [1] was inactive: -0.478; in assay [2], inactive: -0.477.

B2: 56.b.16 (protein)
chain 1: EVQLVESGGGLVQPGGSLRLSCSASGFNVSDYAMHWVRQAPGKGLEYVSLISSNGFSTFYTDSVKGRFIISRDNSKNTLYLQMSSLRHDDTAVYYCVRAESHDFWSGYYWGHGTLVTVSS
chain 2: DVVMTPGSVSLPVTLGQPASISCRSSQSLVYSDGNTYLSWFQQRPGQSPRRLIYKVSNRDSGVPDRFSGSGSGTDFTLKIRGMEAEDVGVYYCLQTTHWPPTFGQGTKVEIK
With B2, the “mRNA display binding score” value in assay [1] is inactive: 0.0802; in assay [2], active: 35.6.

B3: R95-1G06 (protein)
chain 1: EVQLVESGGGLVRPGGSLRLSCAASGFTFNSYGLNWVRQAPGKGLEWVSSIGSSFGYIYYADSVKGRFTISRDNAKSSLFLQMNSLRVEDTAVYYCTRDGDGYARFDHWGHGTLVSVSS
chain 2: SYELTQPPSVSVAPGQTARITCGGNSIGSKSVHWYQQKPGQAPVLVVYDDSDRPSGIPERFSGSNSGDTATLTISRVEAGDEADYYCQVWDSRSDHVVFGGGTKLTVL
Consider B3, for which the “mRNA display binding score” value was inactive: -0.305 in assay [1] and inactive: -0.498 in assay [2].

B4: W85-2B08 (protein)
chain 1: EVQLVESGGGLVQAGRSLRLSCTASGFTFGDYGMSWVRQAPGKGLEWVGFIRSKAYGGTTDFAASVKGRFIISRDDSKSIAYLQMHSLKTEDTAVYYCCRDPYSGSYIDSWGRGTLVTVSS
chain 2: QSALTQPASVSGSPGQSITISCTGTSSDIGGFKYVSWYQQHPGKAPKVMIYEVSDRPSGVSNRFSGSKSGNTASLTISGLQAEDEADYYCSSYTSSSTFVFGTGTKVTVL
Consider B4, for which the “mRNA display binding score” value in assay [1] was inactive: -0.648; in assay [2], inactive: -0.327.

B5: K77-1G04 (protein)
chain 1: QVHLVQSGAEVKNPGASVKVSCKASGYTFTEYYMHWVRQSPGQGLEWMGWINPKTGGTNYAQKFQGWVTMTRDTSIKTVYMELSRLRCDDTAVYYCARDDGYTTGADVWGRGTTVTVSS
chain 2: SYELTQPPSVSVSPGQTARITCSGDALPKQYAYWYQQKPGQAPVMVIYKDSERPSGIPERFSGSSSGTTVTLTISGVQAEDEADYYCQSADSGGTYQLFGGGTKLT
Regarding B5, the results for the “mRNA display binding score” value in assay [1] and in assay [2] were inactive: 1.27 and inactive: -0.109, respectively.

B6: K77-2G05 (protein)
chain 1: QVQLQESGPGRVKPSETLSLTCTVSGGSVSSDSFYWSWIRQPPGRGLEWIGYISKSGSTNYTPSLKSRVTVSIETSKNQISLNLSSVTAADTAVYYCARAFRGYCITTDCYIFDYWGQGTLVTVSS
chain 2: DIVMTQSPDSLAVSLGERATINCKSNRSILFSSNNKNYLAWYQQKPGQPPKLLIYWASTRESGVPDRFSGSGSGTDFTLTISRLQAEDVAVYYCQQYYGTPLTFGGGTKVEIK
As for B6, the “mRNA display binding score” value in assay [1] is inactive: 0.516; in assay [2], inactive: -0.212.

B7: R95-1E01 (protein)
chain 1: EVQLVESGGGLVQPGRSLRLSCAGDGFSFDDHAMHWVRQAPGKGLEWVSGISWNSGSIGYVDSVKGRFTISRDNAKNSLYLQMNTLRPEDTALYYCVRDMNWNSQIGGYYFDYWGQGALVTVSS
chain 2: DIQMTQSPSSLSASVGDRVTITCRASHNITNFLNWYQQKPGKAPKLLIYGTSSLQSGVPSRFSGSGSGTDFTLAISSLHPEDFATYYCQQSYSIHPYTFGQGTKLDIK
For B7, the “mRNA display binding score” value in assay [1] is inactive: 1.99; in assay [2], inactive: 7.88.

B8: R95-2G09 (protein)
chain 1: QVQVQESGPGLVKPSETLSLTCNVSGGSISSSAYYWGWIRQSPGKGLEWIGSLHYSGSTDYNPSLKSRVTIFADTSKNQFSLKLTSVTAADTAVYYCARRGYNGNYYEYFHHWGQGTLVTVSS
chain 2: DIVMTQSPLSLPVTPGEPASISCRSSQSLLHSNGYNYLDWYLQKPGQSPQLLIYLGSSRASGVPDRFSGSGSGTDFTLKIRRVEADDVGVYYCMQALQTPHTFGQGTKLEIK
B8: the entries for the “mRNA display binding score” value in assay [1] and in assay [2] were inactive: 0.184 and inactive: -0.509, respectively.

B9: K77-2H03 (protein)
chain 1: QVQLVQSGAEVRKPGASVKVSCRASGYTFTSYHLHWVRQAPGQGLEWMGIINLSGGSITYAQKFQGRVTMTRDTSTSTAYMELSSLRSDDTAVYYCARRGFIVTSHLYYYGMDVWGQGTTVTVS
chain 2: EIVLTQSPGTLSLSPGERATLSCRASQSVSSSYLAWYQQKPGQAPRLLIYGASSRATGIRDRFSGYGSGTDFTLTISRLEPEDCAVYYCQQYGRYGTFGQGTKVEIK
For B9, the “mRNA display binding score” value is inactive: 1.18 in assay [1] and inactive: 0.567 in assay [2].

B10: W85-3F09 (protein)
chain 1: EVQLVESGGGVVQPGRSLRLSCAASGFTFSSFGMHWVRQAPGKGLEWMAVISYNGINKDYADSVKGRFTISRDNSKNTLYLQMNSLRAEDTAVYYCAAGQRQFDYFPDGDYYYFDSWGQGTLVTVSS
chain 2: QSALTQPPSASGTPGQRVTISCSGSSSNIGSYYVYWYQQLPGTAPKVLIYRNDRRPSGLPDRFSGSKSGTSASLAISGLRSEDEGDYYCASWDNSLSGPVFGGGTKLTV
In the case of B10, the “mRNA display binding score” value in assay [1] was inactive: 0.108; in assay [2], inactive: 0.356.

B11: antibody 1F06 (protein)
chain 1: VQLLESGGGLVQPGGSLRLSCAASGLTFSSYAMSWVRQAPGKGLEWVSVIYSDGSGTWYADSVKGRFTISRDNSKNTLFLQMSSLRAEDTAVYYCAKDRFRGSWIDVFDIWGQGTMVTVSS
chain 2: DIQMTQSPSSLSASVGDRVTITCQASQDMSNSLNWYHQKPGKAPKLLIYGASHLEAGVPSRFSGSGSGTDFTFTISSLQPEDIGTYYCQRFKAFGQGTKVEIK
Turning to B11, the “mRNA display binding score” value in assay [1] was inactive: 0.842; in assay [2] it was inactive: -0.0913.

B12: 051-10-2A05 (protein)
chain 1: EVQLVESGGGLVQPGGSLRLSCAASGFIFSSYWMSWVRQAPGKGLEWVANINQGGSEKQYVDSVKGRFTISRDNAKKSLFLQMNRLRAEDTAVYYCVRVGAYGDTYHDYYGMDVWGQGTTVTVSS
chain 2: SYELTQAPSVSVAPGQTARITCGGNNIGSKSVQWYQQKPGQAPVMVVFDGSDRPSGIPERFSGANSGNTATLTISRVEAGDEADYHCQVWDSSSERHVVFGGGTKLTVL
For the molecule B12, the “mRNA display binding score” value in assay [1] is inactive: -0.673; in assay [2] it was inactive: 0.132.

B13: AG7-3B02 (protein)
chain 1: VQLVESGGVVVQPGGSLRLSCAASGFTFDDCAMHWVRQAPGKGLEWVSLITWDGGSTYYADSVKGRFTISRDNNKNSLYLQMNSLRAEDTALYYCAKDMSSGYYSIFDSWGQGTLVTVSS
chain 2: EIVMTQSPATLSVSPGERATLSCRASQTISGNLAWYQQKPGQAPRLLIYYASARATGIPARFSGSGSGTEFTLTISSLQSEDFALYYCQHYNNWPPQFGPGTKVDIK
For B13, the “mRNA display binding score” value in assay [1] is inactive: 1.28; in assay [2], inactive: 1.33.

B14: K77-2F01 (protein)
chain 1: QVQLQESGPGLVKPSGTLSLTCAVSGGSISSSHWWSWVRQPPGKGLEWIGEIHHSGTSNHNPSVESRVNISVDKSKNHFSLELTSVTAADTAVYFCARVSTVAGHRSSYCLDSWGQGTLVAVSS
chain 2: QSALTQPASVSGSPGQSITISCTGTSSDVGGYDYVSWYQQHPGKAPKVIIYDVSYRPSGVSNRFSGSKSGNMASLTISGLQAEDEADYYCSSYTTTFTLLFGGGTKVT
Take B14: the “mRNA display binding score” value in assay [1] was inactive: 0.561; in assay [2] it was inactive: 0.183.

B15: AG12-C06 (protein)
chain 1: VQLQESGPGMVRPSQTLSLFCTVSGDSIGSGTDYWNWVRQPPGKGLEWVGDIPDRGNPNYNPSLRSRLSISRDTSKNRISLTLTSVTAADTAVYYCARASGTRVATITDYYGMDVWGQGTTVTVSS
chain 2: DIQMTQSPSSLSASVGDRVTITCRASQAITNHLNWYQSKPGKAPKFLISAASTLQNGVPSRFSGSGSGTDYSLTITNLQPDDFATYYCQQSHSNPITFGQGTRLEIK
Turning to B15, the “mRNA display binding score” value in assay [1] is inactive: -0.671; in assay [2], inactive: -0.657.

B16: R95-1A10 (protein)
chain 1: EMALVESGGTVVQPGGSLTLSCEVSGFTFDDYAMHWVRQVPGKGLEWVSLISWDAGNTNYADSVKGRFNISRDNTRSILYLQMSSLRPEDTAIYYCTKDDGGGNYDYYRYMDVWGRGTTVTVS
chain 2: QSALTQPASESGSLGQSITISCTGTSGDVGGYNRVSWYQQHPGKAPRLVIYEGSKRPSGVSSRFSGSKSGNTASLTITGLQAEDEAEYFCSSYAGSITFVFGTGTKVNVL
For the molecule B16, the “mRNA display binding score” value in assay [1] was inactive: -0.543; in assay [2], inactive: 1.32.

B17: 039-10-4B05 (protein)
chain 1: QVQLVQSGAEVKKPGASVKVSCETSGYMFTAYATHWVRQAPGQGLEWMGWVNGLNGNTKYSEKFQGRITITRDTSATTAYMELSSLRSDDTAVYYCARGNIANWFDPWGQGTLVTVSS
chain 2: DIQMTQSPSSLSASVGDRVTITCRASQDIRKSLAWYQQKPGKAPKVLVFATSRLEDGVPSRFSGSGSGTEYTLTISSLQPEDFATYHCQQYQSTPYTFGQGTKVEIK
For the molecule B17, the “mRNA display binding score” value in assay [1] was inactive: -0.553; in assay [2] it was inactive: -0.644.

B18: AG11-E04 (protein)
chain 1: VQLQESGPGLVKPSETLSLTCSVSGDSISSDYYWGWIRQPPGKGLEWIGSLYAGGITYYSPSLESRLSMAMDTSRNEFSMSLTSVTAADAAVYYCVRDRNILSREGFDFWGQGILVTVSS
chain 2: DIQMTQSPSSLSASVGDSVTITCRASQNIGFFLNWYRQKPGKAPELLVYLASTLQSGVPSRFSGGRSGTDFTLTISGLQPQDFATYFCQQSYENTPYTFGQGTKVEIK
With B18, the “mRNA display binding score” value in assay [1] was inactive: -0.761; in assay [2], inactive: 0.251.

B19: 56.f.01 (protein)
chain 1: QVHLVQSGAEVKKPGASVKVSCKVSGHTLSELSIHWVRQAPGNVLEWMGGFDPEDGESISAQMFQGRVIMTEDSSKDTAYMELSSLTSEDTAVYYCATGSYCSATYCSFDYWGQGTLVTVSS
chain 2: AIRMTQSPVSLSASVGDRVTITCWASQGISNYLVWIQQKPAKAPRLFIYYASSLQSGVPSRFSGSGSGTDYTLTIISLQPEDFATYYCQQFYGSLPLTFGGGTKVEIK
Turning to B19, the “mRNA display binding score” value in assay [1] is inactive: -0.408; in assay [2] it was inactive: -0.746.
